# Results taken from the supplement of paper PMC10338343.
# ± gives the standard deviation. The entries are a selection whose mix differs from that of the whole data set.
# Test system: MIWI (PIWIL1) piRISC loaded with L1MC piRNA (30 nt)
# Assay: pre-steady-state target cleavage rate (min^-1); MIWI and MILI are mouse PIWI proteins and EfPiwi is from a freshwater sponge; tags in brackets are library labels; higher = faster piRNA-guided slicing of the target
# Details: guide: L1MC piRNA 5'p-UAACUAAAUACUAUGCAAGCUGUAGGUCCU; auxiliary factor: 500 nM mouse GTSF1
# In short: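 Active affinity-purified piRISC carrying one synthetic guide (1 nM) was mixed with a transcribed, DNA-blocked target RNA library […] in HEPES–potassium acetate buffer at 33 °C for 0–8 or 0–960 min, with or without 500 nM GTSF1 partner protein. Uncleaved targets were then sequenced and normalised to depth and to weakly complementary targets. Three trials were pooled, and k3 was capped at 0.0001 min^-1. A burst-and-steady-state fit was applied to obtain the pre-steady-state cleavage rate.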
# 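Note: 1 nM active piRISC with 0.1 nM target library at 33 °C single turnover.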
row,Sequence,pre-steady-state target cleavage rate
1,UCCUGCUACAGCUUGCAUAGUACUUUAGUUA,0.471 ± 0.036
2,AGGACCUUCAGCUUGCAUAGUAAUUAGUUA,0.921 ± 0.054
3,UCCUGGAUGUGCUUGCAUAGUAUUAUGUUA,0.0361 ± 0.0097
4,UCCACCUACAGGUUGCAAAGUAUUUAGUUA,1 ± 0.04
5,UCCUGGAUGUCCGUGCAUAGUAUUUAGUUA,0.00772 ± 0.0046
6,UCCUGGUACAGCUUGGAUACUAUUUAGUUA,0.282 ± 0.064
7,UCCUGGAUGUGCUUGCAAAGUAUUUUGUUA,0.0495 ± 0.008
8,UCCUGGAUGAGCUUGCAAAGUAUUUAGUUA,0.725 ± 0.047
9,UCCUGGAUGAGCUUGCAUUGUAUUUAGUUA,0.491 ± 0.033
10,UCCUCCUUCAGGUUGCAUAGUAUUUAGUUA,0.916 ± 0.034
11,UCGACCUAGUCCUUGCAUAGUAUUUACAAA,0.259 ± 0.049
12,UCCUGGAUCAGCUUGCAUAGUUAUUAGUUA,0.0809 ± 0.012
13,UCCUGGAUGUGCAUGCAUAGUAUUUACUUA,0.0517 ± 0.0099
14,UCCUGCUACAUCUUGCAUAGUAUUUAGUUA,0.629 ± 0.035
15,UCCUCCUACAGCAUGCAUAGUAUUUACUUA,0.409 ± 0.039
16,UCGACCUACAGCUUGCAUAGUAAUUAGAUA,0.336 ± 0.038
17,UCGAGCUACAGCUAGCAUAGUAUUUAGUUA,1.19 ± 0.085
18,UCCUGGAUCAGCUUGCAUAGUAUAUAGAUA,0.138 ± 0.025
19,UCCUCCUACAGCUUGCAUAGUAUUGUAGUUA,0.282 ± 0.054
20,UCCUGGUACAGCUUGCUUAGUAAUUAGUUA,0.276 ± 0.05

row,Sequence,pre-steady-state target cleavage rate
1,UGGACCUACAGCUUGCAUAGUAUUUAUUA,0.126 ± 0.015
2,UCCUGGAUGUCCCUUGCAUAGUAUUUAGUUA,0.131 ± 0.026
3,UGGACCUACAGCUGGCAUAGUAUUUAGUUA,1.04 ± 0.044
4,UCCUGCUACAGCUUGCUAAGUAUUUAGUUA,0.22 ± 0.024
5,UCCUGGUACAGCUUGCAUAGUAAUUACUUA,0.0784 ± 0.02
6,UGGACCUACAGCUUGCUUAGUAUUAAGUUA,0.454 ± 0.041
7,UGGACCUACACCUUGCAUAGUAUUUAGAUA,0.355 ± 0.048
8,UCCUGGUAGAGCAUGCAUAGUAUUUAGUUA,0.415 ± 0.032
9,UCCUGCUACAGCUUGCAUAGAAUUUAGUUA,0.427 ± 0.037
10,UCCUGGAUCAGCAUGCAUAGUAUUAAGUUA,0.449 ± 0.034
11,ACGACCUACAGCUUGCAUAGUAUUUUGUUA,0.912 ± 0.039
12,UCCUGCGACAGCUUGCAUAGUAUUUAGUUA,1.19 ± 0.06
13,UCGACCUACAGCUUGCAUAGUAAUUAGUUA,1.08 ± 0.049
14,UCCUCCUACACCUUGCAUAGUUUUUAGUUA,0.228 ± 0.041
15,UCCUGGAACAGCUUGCAUAGCAUUUAGUUA,0.328 ± 0.031
16,AGGACCUACAGCAUGCAUAGAAUUUAGUUA,0.461 ± 0.058
17,UCCACCUACUCGUUGCAUAGUAUUUAGUAA,0.406 ± 0.031
18,UCCACCUUGUGCUUGCAUAGUAUUUAGUAA,0.218 ± 0.029
19,UCCUGGUACAGCUUGCAUAGUAUAAAGUUA,0.296 ± 0.053
20,UGGACCUACAGCUAGCAUAGUUUUUAGUUA,0.38 ± 0.017

# Same assay, conditions: guide: L1MC piRNA 5'p-UAACUAAAUACUAUGCAAGCUGUAGGUCCU; auxiliary factor: none (no GTSF1)
row,Sequence,pre-steady-state target cleavage rate
1,UCCUGCUACAGCUUGCAUAGUACUUUAGUUA,0.00697 ± 0.0026
2,AGGACCUUCAGCUUGCAUAGUAAUUAGUUA,0.0391 ± 0.0084
3,UCCUGGAUGUGCUUGCAUAGUAUUAUGUUA,0.00737 ± 0.0028
4,UCCACCUACAGGUUGCAAAGUAUUUAGUUA,0.0166 ± 0.0038
5,UCCUGGAUGUCCGUGCAUAGUAUUUAGUUA,0.00337 ± 0.0029
6,UCCUGGUACAGCUUGGAUACUAUUUAGUUA,0.00733 ± 0.0031
7,UCCUGGAUGUGCUUGCAAAGUAUUUUGUUA,0.0109 ± 0.0032
8,UCCUGGAUGAGCUUGCAAAGUAUUUAGUUA,0.0428 ± 0.011
9,UCCUGGAUGAGCUUGCAUUGUAUUUAGUUA,0.0297 ± 0.009
10,UCCUCCUUCAGGUUGCAUAGUAUUUAGUUA,0.0338 ± 0.006
11,UCGACCUAGUCCUUGCAUAGUAUUUACAAA,0.00217 ± 0.0021
12,UCCUGGAUCAGCUUGCAUAGUUAUUAGUUA,0.0161 ± 0.004
13,UCCUGGAUGUGCAUGCAUAGUAUUUACUUA,0.0106 ± 0.0044
14,UCCUGCUACAUCUUGCAUAGUAUUUAGUUA,0.0492 ± 0.007
15,UCCUCCUACAGCAUGCAUAGUAUUUACUUA,0.0142 ± 0.0025
16,UCGACCUACAGCUUGCAUAGUAAUUAGAUA,0.00853 ± 0.0029
17,UCGAGCUACAGCUAGCAUAGUAUUUAGUUA,0.0195 ± 0.0042
18,UCCUGGAUCAGCUUGCAUAGUAUAUAGAUA,0.0055 ± 0.003
19,UCCUCCUACAGCUUGCAUAGUAUUGUAGUUA,0.00959 ± 0.0038
20,UCCUGGUACAGCUUGCUUAGUAAUUAGUUA,0.0136 ± 0.004

row,Sequence,pre-steady-state target cleavage rate
1,UGGACCUACAGCUUGCAUAGUAUUUAUUA,0.00594 ± 0.0034
2,UCCUGGAUGUCCCUUGCAUAGUAUUUAGUUA,0.0116 ± 0.0034
3,UGGACCUACAGCUGGCAUAGUAUUUAGUUA,0.0463 ± 0.011
4,UCCUGCUACAGCUUGCUAAGUAUUUAGUUA,0.00354 ± 0.0021
5,UCCUGGUACAGCUUGCAUAGUAAUUACUUA,0.0071 ± 0.0024
6,UGGACCUACAGCUUGCUUAGUAUUAAGUUA,0.012 ± 0.0028
7,UGGACCUACACCUUGCAUAGUAUUUAGAUA,0.0189 ± 0.005
8,UCCUGGUAGAGCAUGCAUAGUAUUUAGUUA,0.00711 ± 0.0026
9,UCCUGCUACAGCUUGCAUAGAAUUUAGUUA,0.0246 ± 0.0051
10,UCCUGGAUCAGCAUGCAUAGUAUUAAGUUA,0.00727 ± 0.0026
11,ACGACCUACAGCUUGCAUAGUAUUUUGUUA,0.0603 ± 0.009
12,UCCUGCGACAGCUUGCAUAGUAUUUAGUUA,0.0863 ± 0.017
13,UCGACCUACAGCUUGCAUAGUAAUUAGUUA,0.0469 ± 0.012
14,UCCUCCUACACCUUGCAUAGUUUUUAGUUA,0.0173 ± 0.0035
15,UCCUGGAACAGCUUGCAUAGCAUUUAGUUA,0.0329 ± 0.0074
16,AGGACCUACAGCAUGCAUAGAAUUUAGUUA,0.00954 ± 0.0022
17,UCCACCUACUCGUUGCAUAGUAUUUAGUAA,0.00745 ± 0.0019
18,UCCACCUUGUGCUUGCAUAGUAUUUAGUAA,0.0153 ± 0.0028
19,UCCUGGUACAGCUUGCAUAGUAUAAAGUUA,0.0118 ± 0.0031
20,UGGACCUACAGCUAGCAUAGUUUUUAGUUA,0.0216 ± 0.0055
